To fix the notation:
T1: RBFOX1 RRM (Homo sapiens, UniProt Q9NWB1 109-208)
T1 sequence: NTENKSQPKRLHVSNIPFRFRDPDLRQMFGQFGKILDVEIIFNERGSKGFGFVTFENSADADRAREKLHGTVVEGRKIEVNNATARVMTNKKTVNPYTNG

B1: AGUGUAC (DNA:RNA)
RNA: GGGAGACCGGAAUUCAGAUUGUCCAGUGUACUUAAAUCCCGUCGUAGCCACCA
DNA 1: CAATCTGAATTCCGGTCTCCC
DNA 2: TGGTGGCTACGACGGGATT
B2: UGCAAGC (DNA:RNA)
RNA: B1 RNA with A25U, U27C, G28A, U29A, A30G
DNA 1: CAATCTGAATTCCGGTCTCCC
DNA 2: TGGTGGCTACGACGGGATT
B3: ACGGUGG (DNA:RNA)
RNA: B1 RNA with G26C, U27G, A30G, C31G
DNA 1: CAATCTGAATTCCGGTCTCCC
DNA 2: TGGTGGCTACGACGGGATT
B4: AUCGUUG (DNA:RNA)
RNA: B1 RNA with G26U, U27C, A30U, C31G
DNA 1: CAATCTGAATTCCGGTCTCCC
DNA 2: TGGTGGCTACGACGGGATT
B5: AUUAUAC (DNA:RNA)
RNA: B1 RNA with G26U, G28A
DNA 1: CAATCTGAATTCCGGTCTCCC
DNA 2: TGGTGGCTACGACGGGATT
B6: CUAUUCG (DNA:RNA)
RNA: B1 RNA with A25C, G26U, U27A, G28U, A30C, C31G
DNA 1: CAATCTGAATTCCGGTCTCCC
DNA 2: TGGTGGCTACGACGGGATT
B7: CAAUAGG (DNA:RNA)
RNA: GGGAGACCGGAAUUCAGAUUGUCCCAAUAGGUUAAAUCCCGUCGUAGCCACCA
DNA 1: CAATCTGAATTCCGGTCTCCC
DNA 2: TGGTGGCTACGACGGGATT
B8: ACCCCGG (DNA:RNA)
RNA: B7 RNA with C25A, A26C, A27C, U28C, A29C
DNA 1: CAATCTGAATTCCGGTCTCCC
DNA 2: TGGTGGCTACGACGGGATT
B9: UAGUGAU (DNA:RNA)
RNA: B7 RNA with C25U, A27G, A29G, G30A, G31U
DNA 1: CAATCTGAATTCCGGTCTCCC
DNA 2: TGGTGGCTACGACGGGATT
B10: GUAGAGA (DNA:RNA)
RNA: B7 RNA with C25G, A26U, U28G, G31A
DNA 1: CAATCTGAATTCCGGTCTCCC
DNA 2: TGGTGGCTACGACGGGATT
B11: UGUAAAG (DNA:RNA)
RNA: B1 RNA with A25U, G28A, U29A, C31G
DNA 1: CAATCTGAATTCCGGTCTCCC
DNA 2: TGGTGGCTACGACGGGATT
B12: AAGGGAA (DNA:RNA)
RNA: B1 RNA with G26A, U27G, U29G, C31A
DNA 1: CAATCTGAATTCCGGTCTCCC
DNA 2: TGGTGGCTACGACGGGATT
B13: ACCACCU (DNA:RNA)
RNA: B1 RNA with G26C, U27C, G28A, U29C, A30C, C31U
DNA 1: CAATCTGAATTCCGGTCTCCC
DNA 2: TGGTGGCTACGACGGGATT
B14: CGCCAAA (DNA:RNA)
RNA: B1 RNA with A25C, U27C, G28C, U29A, C31A
DNA 1: CAATCTGAATTCCGGTCTCCC
DNA 2: TGGTGGCTACGACGGGATT
B15: GAGCCAC (DNA:RNA)
RNA: B1 RNA with A25G, G26A, U27G, G28C, U29C
DNA 1: CAATCTGAATTCCGGTCTCCC
DNA 2: TGGTGGCTACGACGGGATT
B16: UUGUCAC (DNA:RNA)
RNA: B1 RNA with A25U, G26U, U27G, G28U, U29C
DNA 1: CAATCTGAATTCCGGTCTCCC
DNA 2: TGGTGGCTACGACGGGATT
B17: UGUAAGC (DNA:RNA)
RNA: B1 RNA with A25U, G28A, U29A, A30G
DNA 1: CAATCTGAATTCCGGTCTCCC
DNA 2: TGGTGGCTACGACGGGATT
B18: CUAUCCU (DNA:RNA)
RNA: B7 RNA with A26U, A29C, G30C, G31U
DNA 1: CAATCTGAATTCCGGTCTCCC
DNA 2: TGGTGGCTACGACGGGATT
B19: AUGCCUG (DNA:RNA)
RNA: B1 RNA with G26U, U27G, G28C, U29C, A30U, C31G
DNA 1: CAATCTGAATTCCGGTCTCCC
DNA 2: TGGTGGCTACGACGGGATT
B20: UUCGCGU (DNA:RNA)
RNA: B1 RNA with A25U, G26U, U27C, U29C, A30G, C31U
DNA 1: CAATCTGAATTCCGGTCTCCC
DNA 2: TGGTGGCTACGACGGGATT
B21: CUGGGUA (DNA:RNA)
RNA: B1 RNA with A25C, G26U, U27G, U29G, A30U, C31A
DNA 1: CAATCTGAATTCCGGTCTCCC
DNA 2: TGGTGGCTACGACGGGATT
B22: CAUCCCG (DNA:RNA)
RNA: B7 RNA with A27U, U28C, A29C, G30C
DNA 1: CAATCTGAATTCCGGTCTCCC
DNA 2: TGGTGGCTACGACGGGATT
B23: UCUCCUA (DNA:RNA)
RNA: B1 RNA with A25U, G26C, G28C, U29C, A30U, C31A
DNA 1: CAATCTGAATTCCGGTCTCCC
DNA 2: TGGTGGCTACGACGGGATT
B24: UAUCCUU (DNA:RNA)
RNA: B1 RNA with A25U, G26A, G28C, U29C, A30U, C31U
DNA 1: CAATCTGAATTCCGGTCTCCC
DNA 2: TGGTGGCTACGACGGGATT
B25: AGGCGGC (DNA:RNA)
RNA: B1 RNA with U27G, G28C, U29G, A30G
DNA 1: CAATCTGAATTCCGGTCTCCC
DNA 2: TGGTGGCTACGACGGGATT
B26: AGGUUCG (DNA:RNA)
RNA: B1 RNA with U27G, G28U, A30C, C31G
DNA 1: CAATCTGAATTCCGGTCTCCC
DNA 2: TGGTGGCTACGACGGGATT
B27: UCUCACU (DNA:RNA)
RNA: B1 RNA with A25U, G26C, G28C, U29A, A30C, C31U
DNA 1: CAATCTGAATTCCGGTCTCCC
DNA 2: TGGTGGCTACGACGGGATT
B28: GGGAGCG (DNA:RNA)
RNA: B1 RNA with A25G, U27G, G28A, U29G, A30C, C31G
DNA 1: CAATCTGAATTCCGGTCTCCC
DNA 2: TGGTGGCTACGACGGGATT
B29: CUAGAAG (DNA:RNA)
RNA: B7 RNA with A26U, U28G, G30A
DNA 1: CAATCTGAATTCCGGTCTCCC
DNA 2: TGGTGGCTACGACGGGATT
B30: CAAAGAU (DNA:RNA)
RNA: B7 RNA with U28A, A29G, G30A, G31U
DNA 1: CAATCTGAATTCCGGTCTCCC
DNA 2: TGGTGGCTACGACGGGATT
B31: UGGUAUU (DNA:RNA)
RNA: B7 RNA with C25U, A26G, A27G, G30U, G31U
DNA 1: CAATCTGAATTCCGGTCTCCC
DNA 2: TGGTGGCTACGACGGGATT

Here are results for 31 molecules from paper PMC9911399, “Two distinct binding modes provide the RNA-binding protein RbFox with extraordinary sequence specificity”.

Numbering of substitutions follows the chain as printed; changes in the protein carry UniProt numbers. The list shows a part of the results.

The test deals with T1, RBFOX1 RRM. The experiment in a line: EMSA; HiTS-Eq, 1 nM pool, 10 min; buffer printed only for the single-RNA assays: 10 mM Tris pH 7.5, 150 mM NaCl, 3.4 mM EDTA, 0.001% NP-40, 30 C. The settings on record: tags: His6 N-terminal (pET28a); label: 5' 32P. Summed up: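 Purified RbFox RRM, wild type or mutant, was incubated for 10 min in 50 µL with 1 nM of a 5′-radiolabelled RNA pool carrying 7 randomized nucleotides, whose flanks were annealed to DNA oligonucleotides, over a series of increasing protein concentrations. Unbound RNA was resolved on 8% native PAGE, cut out, reverse-transcribed, barcoded by PCR and sequenced on an Illumina HiSeq 2500. Relative association constants were derived from changes in read counts for each RNA species versus the control reaction and normalised to the cognate motif.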
(In general: In EMSA bound probe runs differently from free probe, usually more slowly.)
Take B1: the binding signal is 0.00886 KA relative to UGCAUGU.

As to B2, the binding signal is 0.0196 KA relative to UGCAUGU.

B3: the binding signal was 0.0165 KA relative to UGCAUGU.

Consider B4, for which the binding signal was 0.0115 KA relative to UGCAUGU.

With B5, the binding signal is 0.002 KA relative to UGCAUGU.

Turning to B6, the binding signal was 0.0141 KA relative to UGCAUGU.

Turning to B7, the binding signal was 0.00848 KA relative to UGCAUGU.

In the case of B8, the binding signal is 0.0123 KA relative to UGCAUGU.

Consider B9, for which the binding signal was 0.00564 KA relative to UGCAUGU.

Turning to B10, the binding signal was 0.00953 KA relative to UGCAUGU.

With B11, the binding signal is 0.0168 KA relative to UGCAUGU.

As to B12, the binding signal was 0.00655 KA relative to UGCAUGU.

Consider B13, for which the binding signal was 0.00175 KA relative to UGCAUGU.

For the molecule B14, the binding signal was 0.00244 KA relative to UGCAUGU.

B15: the binding signal is 0.00453 KA relative to UGCAUGU.

With B16, the binding signal is 0.0114 KA relative to UGCAUGU.

B17: the binding signal is 0.0152 KA relative to UGCAUGU.

B18: the binding signal was 0.00261 KA relative to UGCAUGU.

Consider B19, for which the binding signal was 0.024 KA relative to UGCAUGU.

On to B20, for which the binding signal is 0.0167 KA relative to UGCAUGU.

For B21, the binding signal was 0.0268 KA relative to UGCAUGU.

For the molecule B22, the binding signal is 0.00362 KA relative to UGCAUGU.

With B23, the binding signal was 0.00606 KA relative to UGCAUGU.

For B24, the binding signal is 0.00463 KA relative to UGCAUGU.

On to B25, for which the binding signal is 0.0116 KA relative to UGCAUGU.

In the case of B26, the binding signal is 0.0219 KA relative to UGCAUGU.

In the case of B27, the binding signal was 0.00349 KA relative to UGCAUGU.

B28: the binding signal is 0.0296 KA relative to UGCAUGU.

B29: the binding signal was 0.0105 KA relative to UGCAUGU.

As for B30, the binding signal is 0.00276 KA relative to UGCAUGU.

As to B31, the binding signal is 0.0119 KA relative to UGCAUGU.
